How the values were obtained:
[1] = target: T1, HER2 (on HER2高表达细胞株 N87 / BT474) (UniProt P04626); test: cell-based or functional assay
[2] = target: T1, HER2 (on HER2高表达细胞株 N87 / BT474); test: cell-based or functional assay; remark: listed apart in the source

B1: PerH-61246 (bispecific antibody, human IgG1, kappa)
heavy: EVQLVESGGGLVQPGGSLRLSCAASGFTFTDYTMDWVRQAPGKGLEWVADVNPNSGGSIYNQRFKGRFTLSVDRSKNTLYLQMNSLRAEDTAVYYCARNLGPSFYFDYWGQGTLVTVSS[human IgG1 constant region cut from this listing]GGGGSGGGGSGGGGSGGGGSGGGGSGGGGSQVQLVQSGAEVKKPGASVKVSCKGSGYTFTDYAIHWVRQAPGQSLEWIGVFSIYYENINYNQKFKGRATMTVDKSTSTAYMELRSLRSDDTAVYYCARRDGGTINYWGQGTLVTVSSGGGGSGGGGSGGGGSGGGGSDVVMTQSPLSLPVTLGQPASISCRSSQSLVHSNGNTYLHWYQQRPGQSPRLLIYKVSNRFSGVPDRFSGSGSGTDFTLKISRVEAEDVGVYFCSQSTHIPWTFGQGTKVEIK
light: DIQMTQSPSSLSASVGDRVTITCKASQDVSIGVAWYQQKPGKAPKLLIYSASYRYTGVPSRFSGSGSGTDFTLTISSLQPEDFATYYCQQYYIYPYTFGQGTKVEIKRTVAAPSVFIFPPSDEQLKSGTASVVCLLNNFYPREAKVQWKVDNALQSGNSQESVTEQDSKDSTYSLSSTLTLSKADYEKHKVYACEVTHQGLSSPVTKSFNRGEC
Question: Which results are given for B1?
Answer: IC50, N87细胞增殖抑制 (CCK8) [1]: 0.29 nM; 最大抑制率(%), N87细胞增殖 (CCK8) [2]: 61.9%
